# Data reported in the supplement of paper PMC8728848.
# This is one part of the list.
# B1: Annexin-A1 (Mus musculus), P10107 (protein)
# chain: MAMVSEFLKQARFLENQEQEYVQAVKSYKGGPGSAVSPYPSFNVSSDVAALHKAIMVKGVDEATIIDILTKRTNAQRQQIKAAYLQENGKPLDEVLRKALTGHLEEVVLAMLKTPAQFDADELRGAMKGLGTDEDTLIEILTTRSNEQIREINRVYREELKRDLAKDITSDTSGDFRKALLALAKGDRCQDLSVNQDLADTDARALYEAGERRKGTDVNVFTTILTSRSFPHLRRVFQNYGKYSQHDMNKALDLELKGDIEKCLTTIVKCATSTPAFFAEKLYEAMKGAGTRHKALIRIMVSRSEIDMNEIKVFYQKKYGISLCQAILDETKGDYEKILVALCGGN
# Assays:
# Experiment in all cases: glycan array binding signal (z-score within array); higher = stronger binding
# Settings in all cases: glycan notation: IUPAC condensed, linker removed
# Gal(b1-3)GalNAc = molecular target: Gal(b1-3)GalNAc
# How it was run: (§1)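 Columns mapping to the same glycan were averaged after glycan names were converted to IUPAC-condensed notation. The data come from 3228 arrays in the Consortium for Functional Glycomics database, limited to those with an available protein sequence. Binding is reported as a within-array Z-score averaged across arrays of one protein sequence and across linkers.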
# [1] = molecular target: Gal(b1-3)GalNAc(b1-3)Gal(a1-4)Gal(b1-4)Glc
# How it was run: as §1
# [2] = molecular target: Gal(b1-3)GalNAc(b1-3)Gal(b1-4)Glc
# How it was run: as §1
# [3] = molecular target: Gal(b1-3)GalNAc(b1-3)Gal(b1-4)GlcNAc
# How it was run: as §1
# [4] = molecular target: Gal(b1-3)GalNAc(b1-4)Gal(b1-4)Glc
# How it was run: as §1
# [5] = molecular target: Gal(b1-3)GalNAc(b1-4)[Neu5Ac(a2-3)]Gal(b1-4)Glc
# How it was run: as §1
# [6] = molecular target: Gal(b1-3)GlcNAc(b1-3)Gal(b1-3)GlcNAc
# How it was run: as §1
# [7] = molecular target: Gal(b1-3)[Fuc(a1-4)]GlcNAc
# How it was run: as §1
# [8] = molecular target: Gal(b1-3)[Fuc(a1-4)]GlcNAc(b1-3)Gal(b1-3)[Fuc(a1-4)]GlcNAc
# How it was run: as §1
# [9] = molecular target: Gal(b1-3)[Fuc(a1-4)]GlcNAc(b1-3)Gal(b1-4)GlcNAc
# How it was run: as §1
# [10] = molecular target: Gal(b1-3)[Fuc(a1-4)]GlcNAc(b1-3)Gal(b1-4)[Fuc(a1-3)]GlcNAc
# How it was run: as §1
# [11] = molecular target: Gal(b1-3)[GlcNAc(b1-6)]GalNAc
# How it was run: as §1
# [12] = molecular target: Gal(b1-3)[GlcNAc(b1-6)]GlcNAc
# How it was run: as §1
# [13] = molecular target: Gal(b1-3)[Neu5Ac(a2-6)]GalNAc
# How it was run: as §1
# [14] = molecular target: Gal(b1-3)[Neu5Ac(a2-6)]GlcNAc
# How it was run: as §1
# [15] = molecular target: Gal(b1-3)[Neu5Ac(a2-6)]GlcNAc(a1-4)Gal(b1-4)Glc
# How it was run: as §1
# [16] = molecular target: Gal(b1-3)[Neu5Ac(b2-6)]GlcNAc
# How it was run: as §1
# [17] = molecular target: Gal(b1-4)GalNAc(a1-3)[Fuc(a1-2)]Gal(b1-4)GlcNAc
# How it was run: as §1
# [18] = molecular target: Gal(b1-4)GalNAc(b1-3)[Fuc(a1-2)]Gal(b1-4)GlcNAc
# How it was run: as §1
# Gal(b1-4)Glc = molecular target: Gal(b1-4)Glc
# How it was run: as §1
# Gal(b1-4)Glc6S = molecular target: Gal(b1-4)Glc6S
# How it was run: as §1
# Gal(b1-4)GlcNAc = molecular target: Gal(b1-4)GlcNAc
# How it was run: as §1
# [19] = molecular target: Gal(b1-4)GlcNAc(b1-2)Man(a1-3)[Gal(b1-4)GlcNAc(b1-2)Man(a1-6)]Man(b1-4)GlcNAc(b1-4)GlcNAc
# How it was run: as §1
# [20] = molecular target: Gal(b1-4)GlcNAc(b1-3)Gal(b1-3)GlcNAc
# How it was run: as §1
# [21] = molecular target: Gal(b1-4)GlcNAc(b1-3)Gal(b1-4)Glc
# How it was run: as §1
# [22] = molecular target: Gal(b1-4)GlcNAc(b1-3)Gal(b1-4)GlcNAc
# How it was run: as §1
# [23] = molecular target: Gal(b1-4)GlcNAc(b1-3)Gal(b1-4)GlcNAc(b1-3)Gal(b1-4)GlcNAc
# How it was run: as §1
# [24] = molecular target: Gal(b1-4)GlcNAc(b1-3)Gal(b1-4)[Fuc(a1-3)]GlcNAc(b1-3)Gal(b1-4)[Fuc(a1-3)]GlcNAc
# How it was run: as §1
# [25] = molecular target: Gal(b1-4)GlcNAc(b1-3)GalNAc
# How it was run: as §1
# [26] = molecular target: Gal(b1-4)GlcNAc(b1-3)[Gal(b1-4)GlcNAc(b1-6)]GalNAc
# How it was run: as §1
# [27] = molecular target: Gal(b1-4)GlcNAc(b1-6)GalNAc
# How it was run: as §1
# [28] = molecular target: Gal(b1-4)GlcNAc(b1-6)[Gal(b1-3)]GalNAc
# How it was run: as §1
# [29] = molecular target: Gal(b1-4)GlcNAc(b1-6)[Gal(b1-3)]GlcNAc
# How it was run: as §1
# Gal3S(b1-3)GalNAc = molecular target: Gal3S(b1-3)GalNAc
# How it was run: as §1
# Gal3S(b1-3)GlcNAc = molecular target: Gal3S(b1-3)GlcNAc
# How it was run: as §1
# [30] = molecular target: Gal3S(b1-3)[Fuc(a1-4)]GlcNAc
# How it was run: as §1
# Gal3S(b1-4)Glc = molecular target: Gal3S(b1-4)Glc
# How it was run: as §1
# Gal3S(b1-4)Glc6S = molecular target: Gal3S(b1-4)Glc6S
# How it was run: as §1
# Gal3S(b1-4)GlcNAc = molecular target: Gal3S(b1-4)GlcNAc
# How it was run: as §1
# Gal3S(b1-4)GlcNAc6S = molecular target: Gal3S(b1-4)GlcNAc6S
# How it was run: as §1
# Gal3S6S(b1-4)GlcNAc = molecular target: Gal3S6S(b1-4)GlcNAc
# How it was run: as §1
# Gal3S6S(b1-4)GlcNAc6S = molecular target: Gal3S6S(b1-4)GlcNAc6S
# How it was run: as §1
# Gal4S(b1-4)GlcNAc = molecular target: Gal4S(b1-4)GlcNAc
# How it was run: as §1
# Gal4S6S(b1-4)GlcNAc = molecular target: Gal4S6S(b1-4)GlcNAc
# How it was run: as §1
# Gal6S(b1-4)Glc = molecular target: Gal6S(b1-4)Glc
# How it was run: as §1
# Gal6S(b1-4)Glc6S = molecular target: Gal6S(b1-4)Glc6S
# How it was run: as §1
# Gal6S(b1-4)GlcNAc = molecular target: Gal6S(b1-4)GlcNAc
# How it was run: as §1
# GalNAc(a1-3)Gal = molecular target: GalNAc(a1-3)Gal
# How it was run: as §1
# GalNAc(a1-3)GalNAc = molecular target: GalNAc(a1-3)GalNAc
# How it was run: as §1
# [31] = molecular target: GalNAc(b1-3)Gal(a1-4)Gal(b1-4)GlcNAc
# How it was run: as §1
# GalNAc(b1-4)GlcNAc = molecular target: GalNAc(b1-4)GlcNAc
# How it was run: as §1
# Glc(a1-4)Glc = molecular target: Glc(a1-4)Glc
# How it was run: as §1
# Glc(a1-6)Glc(a1-6)Glc = molecular target: Glc(a1-6)Glc(a1-6)Glc
# How it was run: as §1
# Glc(b1-4)Glc = molecular target: Glc(b1-4)Glc
# How it was run: as §1
# Glc(b1-6)Glc = molecular target: Glc(b1-6)Glc
# How it was run: as §1
# GlcA(b1-3)Gal = molecular target: GlcA(b1-3)Gal
# How it was run: as §1
# GlcA(b1-6)Gal = molecular target: GlcA(b1-6)Gal
# How it was run: as §1
# [32] = molecular target: GlcNAc(a1-3)Gal(b1-4)GlcNAc
# How it was run: as §1
# [33] = molecular target: GlcNAc(a1-6)Gal(b1-4)GlcNAc
# How it was run: as §1
# [34] = molecular target: GlcNAc(b1-2)Gal(b1-3)GlcNAc
# How it was run: as §1
binder,measurement,setting,value
B1,glycan array binding signal (z-score),Gal(b1-3)GalNAc,0.031
same,glycan array binding signal (z-score),[1],-0.331
same,glycan array binding signal (z-score),[2],-0.151
same,glycan array binding signal (z-score),[3],-0.629
same,glycan array binding signal (z-score),[4],-0.032
same,glycan array binding signal (z-score),[5],-0.32
same,glycan array binding signal (z-score),[6],-0.355
same,glycan array binding signal (z-score),[7],-0.466
same,glycan array binding signal (z-score),[8],0.133
same,glycan array binding signal (z-score),[9],-0.728
same,glycan array binding signal (z-score),[10],-0.729
same,glycan array binding signal (z-score),[11],-0.488
same,glycan array binding signal (z-score),[12],-0.262
same,glycan array binding signal (z-score),[13],-0.343
same,glycan array binding signal (z-score),[14],-0.592
same,glycan array binding signal (z-score),[15],-0.702
same,glycan array binding signal (z-score),[16],-0.133
same,glycan array binding signal (z-score),[17],-0.694
same,glycan array binding signal (z-score),[18],-0.677
same,glycan array binding signal (z-score),Gal(b1-4)Glc,-0.088
same,glycan array binding signal (z-score),Gal(b1-4)Glc6S,0.533
same,glycan array binding signal (z-score),Gal(b1-4)GlcNAc,-0.135
same,glycan array binding signal (z-score),[19],-0.514
same,glycan array binding signal (z-score),[20],-0.371
same,glycan array binding signal (z-score),[21],-0.544
same,glycan array binding signal (z-score),[22],-0.621
same,glycan array binding signal (z-score),[23],-0.691
same,glycan array binding signal (z-score),[24],0.126
same,glycan array binding signal (z-score),[25],-0.476
same,glycan array binding signal (z-score),[26],-0.226
same,glycan array binding signal (z-score),[27],-0.65
same,glycan array binding signal (z-score),[28],-0.512
same,glycan array binding signal (z-score),[29],-0.749
same,glycan array binding signal (z-score),Gal3S(b1-3)GalNAc,-0.323
same,glycan array binding signal (z-score),Gal3S(b1-3)GlcNAc,0.176
same,glycan array binding signal (z-score),[30],-0.017
same,glycan array binding signal (z-score),Gal3S(b1-4)Glc,1.13
same,glycan array binding signal (z-score),Gal3S(b1-4)Glc6S,3.21
same,glycan array binding signal (z-score),Gal3S(b1-4)GlcNAc,0.028
same,glycan array binding signal (z-score),Gal3S(b1-4)GlcNAc6S,1.83
same,glycan array binding signal (z-score),Gal3S6S(b1-4)GlcNAc,1.03
same,glycan array binding signal (z-score),Gal3S6S(b1-4)GlcNAc6S,7.38
same,glycan array binding signal (z-score),Gal4S(b1-4)GlcNAc,-0.042
same,glycan array binding signal (z-score),Gal4S6S(b1-4)GlcNAc,1.13
same,glycan array binding signal (z-score),Gal6S(b1-4)Glc,0.485
same,glycan array binding signal (z-score),Gal6S(b1-4)Glc6S,3.55
same,glycan array binding signal (z-score),Gal6S(b1-4)GlcNAc,-0.12
same,glycan array binding signal (z-score),GalNAc(a1-3)Gal,-0.428
same,glycan array binding signal (z-score),GalNAc(a1-3)GalNAc,-0.443
same,glycan array binding signal (z-score),[31],-0.221
same,glycan array binding signal (z-score),GalNAc(b1-4)GlcNAc,-0.405
same,glycan array binding signal (z-score),Glc(a1-4)Glc,-0.106
same,glycan array binding signal (z-score),Glc(a1-6)Glc(a1-6)Glc,-0.577
same,glycan array binding signal (z-score),Glc(b1-4)Glc,0.223
same,glycan array binding signal (z-score),Glc(b1-6)Glc,-0.231
same,glycan array binding signal (z-score),GlcA(b1-3)Gal,0.114
same,glycan array binding signal (z-score),GlcA(b1-6)Gal,0.482
same,glycan array binding signal (z-score),[32],-0.417
same,glycan array binding signal (z-score),[33],-0.738
same,glycan array binding signal (z-score),[34],-0.395
